Measured values as given in ChEMBL document CHEMBL4888484, “Replenishing the malaria drug discovery pipeline: Screening and hit evaluation of the MMV Hit Generation Library 1 (HGL1) against asexual blood stage Plasmodium falciparum ,using a nano luciferase reporter read-out” (2022).
The whole screen tested about 150,000 compounds, of which about 540 (0.36%) showed an effect of 50% or more. Some of the results follow.

system: Plasmodium falciparum; experiment: Primary screen in NF54 nanoGlo assay, in single point, at 2uM, 72h; a lower Z score goes with more inhibition; format: functional, Erythrocyte; details: timepoint 72 hour

Structure (SMILES)	% Inhibition [%]	Z score
O=C(Cn1ccc([C@H]2CCCNC2)n1)NCc1noc(-c2ccccc2)n1	11	-1.41
c1csc(-c2noc(CN3CCC[C@@H]3Cn3cncn3)n2)c1	-9	1.28
O=C(NCCn1cccnc1=O)c1cncc(Br)c1	28	-3.64
CCc1cc(N(C)CC2(C)COC2)nc(N(C)C)n1	11	-1.92
Cc1ccc(N(C)S(=O)(=O)c2ccc(CC(=O)N3CCCCC3)s2)cc1	-4	0.86
CCC(C)C(Nc1ncc(C(F)(F)F)cc1Cl)C(N)=O (centres undefined)	-1	0.13
CCn1nccc1CNc1cc(Cl)cc2c1OCC(=O)N2	0	-0.01
CCn1cc2c(n1)c(=O)n(Cc1ccccc1)c(=O)n2CC(=O)Nc1ccccc1C(F)(F)F	0	0.03
c1c(C2CC2)noc1CNCc1noc2c1CCCC2	-2	0.23
CNC(=O)Cc1noc(C=Cc2ccco2)n1	-1	0.12
Cc1nc(C(=O)N2C[C@H]3CC[C@@H](C2)N(Cc2c(C)noc2C)C3=O)cs1	3	-0.47
CN(C)C(=O)c1cccc(Cn2cnc3cnccc3c2=O)c1	-7	0.67
COCCN1C(=O)[C@@H]2C[C@@H](CN2C)Oc2ccccc21	-5	0.54
COc1ccc(C2CN(C(=O)c3ccc(C)cc3)CC2C(=O)NC2CC2)c(OC)c1 (centres undefined)	-11	1.45
Cc1ccc(C)c(S(=O)(=O)Nc2nc(N3CCOCC3)ns2)c1	-8	0.76
Cc1cc(CN(C)c2cc([C@H]3CCOC3)nc(NCCO)n2)no1	-6	0.82
CCc1sc(C(=O)N2CCCc3cc(S(=O)(=O)N4CCCC4)ccc32)cc1C	-7	1.42
CCOc1cc(C(=O)N2CC[C@H](c3cccnc3OC)C2)ccn1	-6	0.76
Cc1nnc(CN(C)Cc2cnc3ccccc3c2)o1	6	-1.2
c1ccc(-n2nnnc2C2(NC3CCCCC3)CCCC2)cc1	-4	0.63
CC(C)Oc1ccccc1-c1ncccc1C(=O)N1CCCC1	9	-1.83

Structure (SMILES)	% Inhibition [%]	Z score
CN(C)c1ccc(CNC(=O)c2cc(F)c(Br)cc2Cl)cn1	6	-0.85
O=C1CC(C(=O)N2CCc3ccc(Br)cc32)CC(=O)N1	10	-1.37
O=C(c1ccc(N2CCCC2)cc1)N1CCC[C@H](Nc2ccc(F)cc2)C1	-3	0.28
O=C(c1c[nH]nn1)N(CC1CC1)C1CCC1	4	-0.68
C[C@@H](C(=O)Nc1cccc2oc(C(F)(F)F)nc12)c1cccnc1	-1	0.09
CC1CN(S(=O)(=O)c2ccc3c(c2)OCCO3)C(C)CO1 (centres undefined)	-2	0.27
COc1cccc2cc(-c3nnc(NC(=O)CCS(=O)(=O)c4ccc(Cl)cc4)o3)oc12	-13	1.49
COCc1cnc(NC(=O)[C@@H]2CCN(C)[C@@H]2c2ccccc2)s1	-10	1.01
OC(CNC1CCCNc2ccccc21)c1ccc(Cl)s1 (centres undefined)	57	-4.74
CCc1ccccc1NC(=O)CN1CCN(CN2C(=O)NC3(CCCCC3)C2=O)CC1	-36	4.25
CC[C@](C)(NC(=O)c1ccccc1)c1nc(-c2ccc(S(N)(=O)=O)cc2)cs1	-10	1.68
Cn1c(=O)c2nc(N3CCOCC3)[nH]c2n(-c2ccccc2)c1=O	36	-4.08
O=C(C(=O)N1CCCC[C@H]1C(=O)O)c1ccc(Br)cc1	-8	0.78
Cc1cc(C(=O)NCc2nc3ccccc3s2)c(C)o1	35	-0.66
CCc1ccccc1C(=O)NCc1ccccc1CN1CC[C@H](O)C1	-9	0.92
CCC(=O)N(CCN1CCOCC1)Cc1csc(COc2ccccc2C)n1	-5	0.49
CN(C)c1ncc(CNCc2cccnc2Oc2ccccc2)s1	-8	1.15
Cc1nc(-c2cc(S(=O)(=O)N3CCC(C(=O)N4CCCCC4)CC3)c(C)s2)no1	2	-0.29
Cc1ccoc1CNC(=O)N1CC[C@H](O)[C@@H](C2CCCC2)C1	2	-0.25
O=C([C@@H]1CC=CCC1)N1CC(COc2ccccc2)C1	-4	0.62
CCOCn1nc(C)c(CC(C)C(=O)NC(CC)CC#N)c1C (centres undefined)	-7	1.26
